Measured values: a collection of fitness landscapes (doi:10.1126/science.1257360)
The other results are listed elsewhere or left out.

B1: PhoQ; a variant is named by its letters at X, in order, P23837 (parent)
chain: MKKLLRLFFPLSLRVRFLLATAAVVLVLSLAYGMVALIGYSVSFDKTTFRLLRGESNLFYTLAKWENNKLHVELPENIDKQSPTMTLIYDENGQLLWAQRDVPWLMKMIQPDWLKSNGFHEIEADVNDTSLLLSGDHSIQQQLQEVREDDDDAEMTHSVAVNVYPATSRMPKLTIVVVDTIPVELKSSYMVWSWFIYVLSANLLLVIPLLWVAAWWSLRPIEALAKEVRELEEHNRELLNPATTRELTSLVRNLNRLLKSERERYDKYRTTLTDLTHSLKTPLXXLQXXLRSLRSEKMSVSDAEPVMLEQISRISQQIGYYLHRASMRGGTLLSRELHPVAPLLDNLTSALNKVYQRKGVNISLDISPEISFVGEQNDFVEVMGNVLDNACKYCLEFVEISARQTDEHLYIVVEDDGPGIPLSKREVIFDRGQRVDTLRPGQGVGLAVAREITEQYEGKIVAGESMLGGARMEVIFGRQHSAPKDE

Variants of: B1
Experiment: enrichment ratio after two sorts for PhoP signalling (ratio (wild type AVST 3.29)); higher = more functional
Details: with PhoP (E. coli)

YNRD and QCFS cannot be ordered by enrichment ratio: ≤ 0.25 for the first, ≤ 0.25 for the second.

HRHM and LTFN cannot be ordered by enrichment ratio: ≤ 0.25 for the first, ≤ 0.25 for the second.

KVCT and IGYC cannot be ordered by enrichment ratio: ≤ 0.25 for the first, ≤ 0.25 for the second.

RTDL and TSMP cannot be ordered by enrichment ratio: ≤ 0.25 for the first, ≤ 0.25 for the second.

SPCW and GAGS cannot be ordered by enrichment ratio: ≤ 0.25 for the first, ≤ 0.25 for the second.

ASSR and YMMY cannot be ordered by enrichment ratio: ≤ 0.25 for the first, ≤ 0.25 for the second.

LKAV and VGDA cannot be ordered by enrichment ratio: ≤ 0.25 for the first, ≤ 0.25 for the second.

VATI and EDMG cannot be ordered by enrichment ratio: ≤ 0.25 for the first, ≤ 0.25 for the second.

SHDR and WRTL cannot be ordered by enrichment ratio: ≤ 0.25 for the first, ≤ 0.25 for the second.

Compared with TNTT, VCPC is lower in enrichment ratio: 3.59 for the first, ≤ 0.25 for the second.

EFWT and FEAQ cannot be ordered by enrichment ratio: ≤ 0.25 for the first, ≤ 0.25 for the second.

YMKF and IKYW cannot be ordered by enrichment ratio: ≤ 0.25 for the first, ≤ 0.25 for the second.

IPFE and DDMQ cannot be ordered by enrichment ratio: ≤ 0.25 for the first, ≤ 0.25 for the second.

GWHI and LEGM cannot be ordered by enrichment ratio: ≤ 0.25 for the first, ≤ 0.25 for the second.

VEQA and KTSK cannot be ordered by enrichment ratio: ≤ 0.25 for the first, ≤ 0.25 for the second.

MHHY and NDIE cannot be ordered by enrichment ratio: ≤ 0.25 for the first, ≤ 0.25 for the second.

VRSW and NQML cannot be ordered by enrichment ratio: ≤ 0.25 for the first, ≤ 0.25 for the second.

LNHW and GCSV cannot be ordered by enrichment ratio: ≤ 0.25 for the first, ≤ 0.25 for the second.

Going from AGRI to SKMP, the enrichment ratio falls from 0.605 to ≤ 0.25.

Going from MGHV to TKPA, the enrichment ratio falls from 2.03 to ≤ 0.25.

GIMR and QPSL cannot be ordered by enrichment ratio: ≤ 0.25 for the first, ≤ 0.25 for the second.

LLAK and HKMF cannot be ordered by enrichment ratio: ≤ 0.25 for the first, ≤ 0.25 for the second.

DPAP and RFAT cannot be ordered by enrichment ratio: ≤ 0.25 for the first, ≤ 0.25 for the second.

EGFF and HLAC cannot be ordered by enrichment ratio: ≤ 0.25 for the first, ≤ 0.25 for the second.

IVSR and DHAR cannot be ordered by enrichment ratio: ≤ 0.25 for the first, ≤ 0.25 for the second.

First: HELI
Second: PGWW
The enrichment ratio of the first is higher: 1.04 for the first, ≤ 0.25 for the second.

RKIK and RIED cannot be ordered by enrichment ratio: ≤ 0.25 for the first, ≤ 0.25 for the second.

MMES and WNWC cannot be ordered by enrichment ratio: ≤ 0.25 for the first, ≤ 0.25 for the second.

NKQE and WFHY cannot be ordered by enrichment ratio: ≤ 0.25 for the first, ≤ 0.25 for the second.

KSPS and NWEK cannot be ordered by enrichment ratio: ≤ 0.25 for the first, ≤ 0.25 for the second.

APHL and HRNC cannot be ordered by enrichment ratio: ≤ 0.25 for the first, ≤ 0.25 for the second.

HQFN and MPMQ cannot be ordered by enrichment ratio: ≤ 0.25 for the first, ≤ 0.25 for the second.

RIFS and LWGY cannot be ordered by enrichment ratio: ≤ 0.25 for the first, ≤ 0.25 for the second.

NDPN and WLSA cannot be ordered by enrichment ratio: ≤ 0.25 for the first, ≤ 0.25 for the second.

MMYS and DSIN cannot be ordered by enrichment ratio: ≤ 0.25 for the first, ≤ 0.25 for the second.

IPAD and PAAR cannot be ordered by enrichment ratio: ≤ 0.25 for the first, ≤ 0.25 for the second.

GHAW and MDSL cannot be ordered by enrichment ratio: ≤ 0.25 for the first, ≤ 0.25 for the second.

RTPF and MWSS cannot be ordered by enrichment ratio: ≤ 0.25 for the first, ≤ 0.25 for the second.

WIAS and WTLG cannot be ordered by enrichment ratio: ≤ 0.25 for the first, ≤ 0.25 for the second.

DFMH and PPTG cannot be ordered by enrichment ratio: ≤ 0.25 for the first, ≤ 0.25 for the second.

IRVR and MLWW cannot be ordered by enrichment ratio: ≤ 0.25 for the first, ≤ 0.25 for the second.

QYTY and SVSD cannot be ordered by enrichment ratio: ≤ 0.25 for the first, ≤ 0.25 for the second.

VENW and EMIY cannot be ordered by enrichment ratio: ≤ 0.25 for the first, ≤ 0.25 for the second.

First: THGH
Second: SRYF
The enrichment ratio of the first is higher: 13.1 for the first, ≤ 0.25 for the second.

Going from SDAW to QLLN, the enrichment ratio falls from 3.91 to 0.731.

ASQS and YGMT cannot be ordered by enrichment ratio: ≤ 0.25 for the first, ≤ 0.25 for the second.

NQAT and GYVL cannot be ordered by enrichment ratio: ≤ 0.25 for the first, ≤ 0.25 for the second.

VRKA and WMFG cannot be ordered by enrichment ratio: ≤ 0.25 for the first, ≤ 0.25 for the second.

AGNF and WRQR cannot be ordered by enrichment ratio: ≤ 0.25 for the first, ≤ 0.25 for the second.

Compared with NNLV, DWPT is lower in enrichment ratio: 1.76 for the first, ≤ 0.25 for the second.

TMET and NSDE cannot be ordered by enrichment ratio: ≤ 0.25 for the first, ≤ 0.25 for the second.

GIKK and GVRN cannot be ordered by enrichment ratio: ≤ 0.25 for the first, ≤ 0.25 for the second.

MKEV and PSWE cannot be ordered by enrichment ratio: ≤ 0.25 for the first, ≤ 0.25 for the second.

GYLM and QCYW cannot be ordered by enrichment ratio: ≤ 0.25 for the first, ≤ 0.25 for the second.

NYGC and WGPR cannot be ordered by enrichment ratio: ≤ 0.25 for the first, ≤ 0.25 for the second.

QACC and TEDA cannot be ordered by enrichment ratio: ≤ 0.25 for the first, ≤ 0.25 for the second.

Going from VTPK to SNAL, the enrichment ratio rises from ≤ 0.25 to 12.1.

HWLP and TWHV cannot be ordered by enrichment ratio: ≤ 0.25 for the first, ≤ 0.25 for the second.

GPTC and GNEM cannot be ordered by enrichment ratio: ≤ 0.25 for the first, ≤ 0.25 for the second.

First: SQTT
Second: YDEP
The enrichment ratio of the first is higher: 11.4 for the first, ≤ 0.25 for the second.

LEET and ALYN cannot be ordered by enrichment ratio: ≤ 0.25 for the first, ≤ 0.25 for the second.

IGCT and QSIT cannot be ordered by enrichment ratio: ≤ 0.25 for the first, ≤ 0.25 for the second.

Compared with HALL, LITN is lower in enrichment ratio: 12.4 for the first, ≤ 0.25 for the second.

First: QAFH
Second: KRKF
The enrichment ratio of the first is higher: 9.93 for the first, ≤ 0.25 for the second.

KERF and GPKD cannot be ordered by enrichment ratio: ≤ 0.25 for the first, ≤ 0.25 for the second.

First: SERS
Second: LEMV
The enrichment ratio of the first is lower: ≤ 0.25 for the first, 12.9 for the second.

LDVK and IIPR cannot be ordered by enrichment ratio: ≤ 0.25 for the first, ≤ 0.25 for the second.

YTFV and THKF cannot be ordered by enrichment ratio: ≤ 0.25 for the first, ≤ 0.25 for the second.

FYPN and DSKM cannot be ordered by enrichment ratio: ≤ 0.25 for the first, ≤ 0.25 for the second.

NHRH and WDWV cannot be ordered by enrichment ratio: ≤ 0.25 for the first, ≤ 0.25 for the second.

First: TGMG
Second: IPIH
The enrichment ratio of the first is higher: 17.2 for the first, ≤ 0.25 for the second.

PKQI and QLMA cannot be ordered by enrichment ratio: ≤ 0.25 for the first, ≤ 0.25 for the second.

Compared with GTCS, VDSP is lower in enrichment ratio: 3.97 for the first, ≤ 0.25 for the second.

QLHV and EGEW cannot be ordered by enrichment ratio: ≤ 0.25 for the first, ≤ 0.25 for the second.

GGPS and IANI cannot be ordered by enrichment ratio: ≤ 0.25 for the first, ≤ 0.25 for the second.

First: MHGR
Second: TGCM
The enrichment ratio of the first is lower: ≤ 0.25 for the first, 16.3 for the second.

With WRGQ the enrichment ratio was ≤ 0.25.
